PubChem BioAssay AID686979 (National Center for Advancing Translational Sciences (NCATS), 2013)
Where “and” joins values, the source holds several entries; their conditions need not be identical. Equal values may be shown once. Among all 420,000 compounds or so, about 50,000 (12%) were called active. The shares of active, inactive and inconclusive entries below differ from those in the screen. Calls follow the shape of the dose curve; as a rule, active = well fitted inhibition curve with a large enough effect; inconclusive = small, poorly fitted or top-dose-only effect; inactive = flat fitted curve, though single readings scatter. No potency is given beside an inconclusive call; the fits are too rough.

Test: qHTS for Inhibitors of human tyrosyl-DNA phosphodiesterase 1 (TDP1): qHTS in cells in presence of CPT; also: nearly all actives have a fitted effect of over 55% in size
Conditions: chicken DT40 Tdp1-/-;hTDP1 cells + 20 nM CPT, ATP luminescence, 48 h; activity change, negative = growth inhibition: at 46.2 µM (top of the series)
Outline: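 Chicken DT40 Tdp1-/- cells stably complemented with human TDP1 were seeded at 400 cells/well in medium containing 20 nM camptothecin, exposed to pin-transferred compounds, and grown at 37 °C for at least 48 hr. Viability was read as ATP luminescence.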
% is scaled to controls: 0 for no effect and ±100 for the full control effect; potency is read from the fitted curve at half-maximal effect; tags tell the direction and shape of the fitted curve.

SMILES	activity change, negative = growth inhibition	Potency
CC(=O)CCCC(NS(=O)(=O)CCC(Cl)(Cl)Cl)c1ccccc1 (stereo not drawn)	inactive: -10.8%	
O=C(Nc1ccc2nc(SCC(=O)N3CCCc4ccccc43)sc2c1)c1ccc(Cl)cc1		active: 5.17 µM
CC(C)NC(=O)NC(=O)CSc1nnc(-c2c[nH]c3ccccc23)o1		inconclusive [inhibitor, single point]
N#Cc1cnn2c(-c3cccc([N+](=O)[O-])c3)ccnc12	inactive: 3.34%	
Cc1ccc(-n2ncc(C(=O)NC3CCN(Cc4ccccc4)CC3)c2C2CCN(C(=O)OC(C)(C)C)CC2)cc1C		active: 20.6 µM
Cc1noc(C)c1COc1cccc(C(=O)NCc2cccc(Cl)c2)c1		inconclusive [inhibitor, single point]
O=C(CSc1nc2ccccc2c(=O)[nH]1)Nc1nc(-c2ccc(Br)cc2)cs1		inconclusive [inhibitor, single point]
Cc1cccc(OCC(=O)Nc2ccc(NC(=O)c3ccco3)c(C)c2)c1		inconclusive [inhibitor, partial curve]
Cc1nnc(SCC(=O)c2c(N)n(C3CC3)c(=O)[nH]c2=O)n1C	inactive: 7.22%	
O=C(Nc1ccccc1Cl)C1CCN(S(=O)(=O)c2cccc3nonc23)CC1	inactive: 5.75%	
O=C(Nc1ccc([N+](=O)[O-])cn1)c1cc(-c2cccc(Br)c2)nc2ccccc12		inconclusive [inhibitor, partial curve]
Nc1nc2n[nH]nc2c(=O)[nH]1		active: 6.31 µM and active: 7.31 µM
CC(C)Oc1ccc(Nc2ncnc3ccccc23)cc1		inconclusive [inhibitor, partial curve, poor fit]
O=c1[nH]c2ccc(NS(=O)(=O)c3ccc4ccccc4c3)cc2[nH]1		inconclusive [inhibitor, single point]
Cc1[nH]c2ccccc2c1Cc1nnc(SCc2ccccc2)o1		inconclusive [inhibitor, single point]
COc1cc(/C=N/Nc2nn3cnnc3c3ccccc23)cc(OC)c1OC		active: 10.3 µM
O=c1[nH]c(SCc2ccccc2)nc2c1sc1ccccc12	inactive: 5.64%	
COc1ccc(N2CCN(C(=O)CN(c3ccccc3)S(C)(=O)=O)CC2)cc1		inconclusive [inhibitor, single point]
CSc1cccc(NC(=O)CN(C)S(=O)(=O)c2ccc(C)cc2)c1		inconclusive [inhibitor, single point]
COCCN(CC(=O)NC1CCCCC1)C(=O)CCCC(=O)Nc1ccccn1	inactive: 3.98%	
N#C/C(=C/c1ccncc1)c1nc2ccccc2s1	inactive: -4.44%	
COc1ccc(-c2cnc3c(NC(C)=O)cc(-c4cccc(C(=O)NCCN(C)C)c4)cn23)cc1OC		inconclusive [inhibitor, single point]
Fc1ccc(-c2nn(-c3ccc(Cl)cc3)c3c2cnc2ccc(F)cc23)cc1	inactive: 3.03%	
COc1ccccc1NC(=O)c1ccccc1NC(=O)c1cc(Cl)ccc1NC(=O)c1ccco1		inconclusive [inhibitor, partial curve]
C[C@@H]1CN([C@@H](C)CO)C(=O)c2cc(Br)cnc2O[C@H]1CN(C)C(=O)NC1CCCC1	inactive: -7.1%	

SMILES	activity change, negative = growth inhibition	Potency
CCC(C(=O)NCCc1cc(OC)ccc1OC)n1nc(C)c2c(C)n(-c3ccccc3)nc2c1=O (stereo not drawn)		active: 18.4 µM
Clc1ccc2nc(-c3cccc(SC4CCCCC4)c3)c(NCc3ccccc3)n2c1		active: 16.4 µM
Cc1ccc(S(=O)(=O)c2nnn3c2nc(N2CCOCC2)c2sccc23)cc1C		inconclusive [inhibitor, partial curve]
Cc1ccc(Nc2sc(C(=O)c3ccc(F)cc3)c(N)c2S(=O)(=O)c2ccc(C)cc2)cc1		active: 18.4 µM
CN1C2CCC1/C(=C/c1cccn1C)C(=O)/C2=C\c1cccn1C		active: 23.1 µM
Cc1cc(C)cc(C(=O)NC(=S)Nc2ccc(Cc3ccncc3)cc2)c1		inconclusive [inhibitor, single point]
c1ccc(-c2nc(N3CCOCC3)sc2-c2ccccc2)cc1	inconclusive: -32.9% [inhibitor]	
Cc1cc(=O)oc2cc(OCC(=O)Nc3ccc(CN4CCOCC4)cc3)c(Cl)cc12		inconclusive [inhibitor, partial curve, poor fit]
CC(=O)Oc1ccc(N(C(C)=O)S(=O)(=O)c2ccccc2)c2ccccc12		active: 20.6 µM
Cc1ccc([N+](=O)[O-])cc1N=Nc1c(-c2ccc([N+](=O)[O-])cc2)[nH]n(C(N)=S)c1=O		active: 8.2 µM
Cc1ccc(C)c(CN2C(=O)c3ccccc3S(=O)c3ccc(C(=O)N4CCOCC4)cc32)c1 (stereo not drawn)		inconclusive [inhibitor, partial curve, poor fit]
Cc1ccc(NC(=S)NC(NC(=O)C(C)(C)C)C(Cl)(Cl)Cl)c(C)c1 (stereo not drawn)		inconclusive [inhibitor, single point]
Cc1ccc(OCCn2cc(/C=N/NC(=O)c3ccncc3)c3ccccc32)cc1		inconclusive [inhibitor, single point]
Cc1ccc(NC(=O)COc2ccc(-c3nnco3)cc2)cc1S(=O)(=O)N1CCOCC1		inconclusive [inhibitor, single point]
Cc1nc(N)nc(N)c1-c1ccc([N+](=O)[O-])cc1		inconclusive [inhibitor, single point]
COc1cccc(-n2ccnc2SCC(=O)N2CCCc3ccccc32)c1		inconclusive [inhibitor, single point]
Cc1ccc(CNC(=O)C2CCCN(c3ncnc4onc(-c5ccc(F)cc5)c34)C2)cc1 (stereo not drawn)		inconclusive [inhibitor, single point]
Cc1cccc(NC(=S)NC(NC(=O)c2ccco2)C(Cl)(Cl)Cl)c1 (stereo not drawn)		inconclusive [inhibitor, single point]
COC(=O)c1ccc2nc(-c3ccc(Cl)cc3)c(Cc3cccc(F)c3)n2c1		active: 20.6 µM
O=C(CCl)NC1CCCc2ccccc21 (stereo not drawn)		active: 14.6 µM
COc1ccc2nc(Nc3sc4c(c3C(N)=O)CCCC4)sc2c1		active: 16.4 µM
Cc1ccc(CN2CCN(C(=O)c3cccc4ccccc34)CC2)cc1		inconclusive [inhibitor, single point]
COc1ccccc1C(=O)NC(=S)Nc1ccc(N2CCN(C(=O)c3ccco3)CC2)cc1		inconclusive [inhibitor, single point]
Cc1ccc(C)c(S(=O)(=O)Nc2ccc(C(=O)N3CCOCC3)cc2)c1	inconclusive: -30.5% [inhibitor]	
Cc1ccc(-n2cc(C(=O)OCc3ccc(F)c(F)c3)c3ccccc3c2=O)cc1	inactive: -20%	

SMILES	activity change, negative = growth inhibition	Potency
COc1ccc(-n2cnnc2SCC(=O)Nc2ccc(N3CCOCC3)cc2)cc1	inactive: -6.31%	
Cc1ccc(CN2CCC(Oc3cccc(C(=O)NCc4cccnc4)c3)CC2)o1		inconclusive [inhibitor, single point]
Cc1ccccc1-c1noc(-c2nnn(-c3ccccc3C)c2N)n1	inactive: 10.8%	
CCN1CCN(Cc2cc(=O)oc3ccc(C)cc23)CC1	inactive: -8.82%	
Cc1cc(C)c(NC(=O)COC(=O)C2CCCCC2)c(C)c1	inactive: 9.02%	
O=C(NCc1ccccc1)c1cc(C2CCCN(S(=O)(=O)c3cccs3)C2)on1 (stereo not drawn)		inconclusive [inhibitor, single point]
O=C(CSc1nc2ncccc2[nH]1)c1ccc(F)cc1	inactive: -5.07%	
Cc1ccc(Nc2cc(C)nn2-c2nc(C)cc(=O)[nH]2)cc1		active: 0.794 µM
Cc1c(Cc2ccccc2)c(=O)oc2c(C)c(OCC(=O)N[C@@H](Cc3ccccc3)C(=O)O)ccc12	inactive: 15.2%	
COc1cc2c(cc1NC(=O)COC(=O)[C@@H](NC(=O)c1ccccc1)C(C)C)oc1ccccc12		inconclusive [inhibitor, single point]
O=Cc1cc2ccccc2nc1SCc1ccc(Cl)c(Cl)c1		active: 1.03 µM
CCCN1Cc2cccc(C(=O)Nc3ccccc3C(=O)OC)c2C1=O		active: 23.1 µM
Cc1cc(C)cc(N(CC(=O)NCCSCc2ccccc2)S(C)(=O)=O)c1	inactive: -25.8%	
O=C(CN1C(=O)NC2(CCCC2)C1=O)OCc1ccc(Cl)c(Cl)c1		active: 16.4 µM
COc1ccc(N2CCN(C(=O)c3cnn(-c4ccc(OC)cc4)c3C3CCN(C(=O)OC(C)(C)C)CC3)CC2)cc1		active: 18.4 µM
O=C(Nc1ccc2c(c1)OCO2)N1CCN(Cc2ccco2)CC1	inactive: 1.18%	
OCCN(Cc1ccccc1)c1ncnc2sccc12		inconclusive [inhibitor, partial curve]
CCOC(=O)CNC(=O)c1ccccc1	inconclusive: -12.9% [inhibitor]	
O=C(NCc1ccccc1)c1ccc(Cl)cc1	inactive: 2.69%	
Cc1c(N2C(=O)CSC2c2ccc([N+](=O)[O-])cc2)c(=O)n(-c2ccccc2)n1C (stereo not drawn)		inconclusive [inhibitor, partial curve]
O=C(CCc1nnc(CCCCc2ccccc2)o1)N1CCCC(O)C1 (stereo not drawn)	inactive: -2.99%	
CC(=O)Nc1ccc(C(=O)COC(=O)c2cc(C)oc2C)c(F)c1		inconclusive [inhibitor, single point]
CCOC(=O)c1c(NC(=O)CSc2nnc(CNc3ccc(C)cc3C)o2)sc(C)c1C		inconclusive [inhibitor, single point]
